# Data: ChEMBL document CHEMBL4888484, “Replenishing the malaria drug discovery pipeline: Screening and hit evaluation of the MMV Hit Generation Library 1 (HGL1) against asexual blood stage Plasmodium falciparum ,using a nano luciferase reporter read-out” (2022)
# In all, about 150,000 compounds went through this assay and about 540 (0.36%) showed an effect of 50% or more. The list shows a part of the results.
# Test system: Plasmodium falciparum
# Test: Primary screen in NF54 nanoGlo assay, in single point, at 2uM, 72h; a lower Z score goes with more inhibition
# Type: functional, Erythrocyte
# Settings: timepoint 72 hour
Structure (SMILES),% Inhibition,Z score
Cc1ccccc1-n1c(=O)n(C2CCCC2)c(=O)c2c1ncn2Cc1cccc(F)c1,-9%,1.15
CN1CCCN(C(=O)CCc2ncc(-c3ccc(Cl)cc3Cl)o2)c2nc3ccccc3nc21,-13%,1.26
CN(Cc1ccccc1)c1ncnc2c(-c3ccc(F)cc3)nsc12,1%,-0.14
CCn1cncc1-c1c(-c2ccccc2)ncn1Cc1ccc(CO)cc1,-5%,1.04
CCn1cnc2cc(NCc3nc4ccccc4n3Cc3ccccc3)ccc21,-18%,2.03
Cc1ccc(C[C@@H](CNC(=O)c2cnsn2)C(=O)O)cc1,6%,-1.05
O=C(Nc1nnn[nH]1)C1CC1c1ccc(Cl)cc1Cl (stereo not drawn),-4%,0.43
Cc1cccc(F)c1NC(=O)NC1CCN(C[C@H]2CCOC2)CC1,-4%,0.42
Cn1c(=O)c2c(ncn2CC(=O)N2CCN(c3ccc(F)cc3)CC2)n(C)c1=O,3%,-0.56
Cc1cc(C(=O)N[C@@]2(C)CCS(=O)(=O)C2)nc(C)n1,-8%,1.16
Cc1nc(N[C@H]2CCC[C@H]2C(=O)O)cc(C(F)(F)F)n1,1%,-0.26
O=C(CCC(F)(F)F)Nc1cnccn1,3%,-0.31
CCO[C@@H](C)c1ccc(-c2cc(C)c(C)nc2O)cc1,-12%,1.7
COc1ccc(-c2cnn(C(F)F)c2C)c(OC)n1,6%,-0.88
CC(C)(CN)c1ccc(-c2cccc3c2CNC3=O)cc1,-16%,1.74
COC(=O)C[C@H](c1ccc(O)cc1)c1c(O)n[nH]c1Cc1ccc(OC(F)(F)F)cc1,-18%,1.97
NC(=O)CC[C@@H]1N[C@]2(C(=O)Nc3ccccc32)[C@@H]2C(=O)N(c3ccc4ccccc4c3)C(=O)[C@H]12,6%,-0.74
COc1ccc(Cc2nnc(C(=O)NC3CCCCC3)o2)cc1OC,-6%,0.89
CCNc1nc(C(=O)NC[C@H]2CCCN2CCOC)cs1,-10%,1.34
Cc1nn(C)c(C)c1C[C@H](C)C(=O)NCCCN(C)c1ccccc1,-9%,1.12
CN(Cc1nccn1C)C(=O)c1cc(-c2ccc3c(c2)CCO3)no1,1%,-0.14
CC(=O)N1CC(C(=O)Nc2cc(Cl)ccc2C#N)C1,-10%,1.79
COc1ccc(-c2cc3n(n2)C(=O)c2ccccc2-3)cc1,-10%,1.31
COCCN1CCC(CNC(=O)c2cc(-c3cc(OC)ccc3OC)nn2C)CC1,-1%,0.06
OCC1(F)CCCN(C2C=CCCC2)C1 (stereo not drawn),-15%,2.14
Cc1noc(CCNC(=O)CN2C(=O)c3ccccc3N3C(=O)c4ccccc4[C@H]23)n1,5%,-0.62
C[C@](O)(CNC(=O)COCc1nc(-c2ccccc2)no1)C1CC1,-16%,2.11

Structure (SMILES),% Inhibition,Z score
CCOc1ccc(CNc2cccc3c2OCC[C@@H]3O)cc1F,2%,-0.45
O=C1CO[C@@H](CNS(=O)(=O)Cc2ccccc2)CN1Cc1ccccc1,-2%,0.3
CCn1nc(C(=O)N[C@H]2CCCc3ccccc32)cc1-c1ccsc1,-14%,2.58
CC(C)Cc1cc(CNCc2ccc(-c3cc[nH]n3)s2)on1,-7%,0.84
O=C(Cc1ccncc1)N1CCC[C@@]2(C=Cc3ccccc3O2)CC1,2%,-0.33
COCc1nc(C2(CC3CC3)CCN(C(=O)Cc3ccc(C)cc3)CC2)no1,-4%,0.5
COCCN(Cc1ccoc1)S(=O)(=O)CCc1ccccc1,-6%,0.71
COc1ccc(-n2nc3ccc(NC(=O)c4nc[nH]n4)cc3n2)cc1Cl,-20%,2.49
O=c1ccc(C(F)(F)F)nn1Cc1ccn(-c2ccccc2)n1,-16%,2.63
CCC1CN(Cc2nnsc2Cl)CCN1CC(C)O (stereo not drawn),-7%,0.83
O=C(NCCn1ccnc1-c1cnccn1)OCc1ccccc1,-4%,0.8
CCOC(=O)[C@@H](C#N)C1(C#N)CCCC1,-2%,0.34
O=C(COc1cccc(Br)c1)Nc1ccc2c(c1)CCC2,4%,-0.73
Cc1ccc(N2CCC[C@]3(CCCN(Cc4ccccc4)C3)C2)nn1,-10%,1.12
Cc1ccc(C)c(C(=O)Nc2cccc(-c3nnc4n3CCCC4)c2)c1,-40%,3.63
Cc1cc(C)n(-c2nc3c(c(=O)n2CC(=O)N2CCCC2)CCC3)n1,4%,-0.5
CCNc1ccc(Br)cc1NC(=O)[C@H](C)OC,-16%,2.26
COc1cc2c3cc1Oc1cc(ccc1O)C[C@@H]1c4c(cc(OC)c(O)c4Oc4ccc(cc4)C[C@@H]3[N+](C)(C)CC2)CC[N+]1(C)C,-3%,0.25
CCN(C(=O)c1cccn1C1CCCC1)[C@@H](C)CS(C)(=O)=O,-6%,0.86
O=C(CN1CCCC[C@H]1c1cc2ccccc2[nH]1)NCC(F)(F)F,0%,0.01
CCOC(=O)N1CCC2(O)CCCCC2[C@@H]1c1ccccc1OC (stereo partly drawn),2%,-0.22
CC[C@](C)(NS(=O)(=O)c1ccc(-n2cc(C)cn2)c(F)c1)c1nccs1,-1%,0.16
CCc1nnc(CN(C)C2CCCCC2C)s1 (stereo not drawn),-16%,2.31
NCc1nc(N2CCCC2)c2cc(Cl)ccc2n1,-6%,0.72
O=C(c1ccc(-c2ccc(O)cn2)cc1)N1CCCN2CCC[C@H]2C1,-6%,1.12
COc1ccc(-c2nn(-c3ccc(C(F)(F)F)cc3)c(N)c2NC(=O)NCC2CCCCC2)cc1,2%,-0.35
Cc1ccc(NC(=O)NC(=O)Cn2c(-c3ccccn3)n[nH]c2=O)cc1C,3%,-0.34
